Experimental data: article PMC12434519 (ACS Medicinal Chemistry Letters, 2025)

Target: SARS-CoV-2 NSP14 (Severe acute respiratory syndrome coronavirus 2, UniProt P0DTD1)
Assay: biochemical
[1] = LUM % inhibition, read-out: SARS-CoV-2 NSP14 inhibition: IC50
[2] = LUM % inhibition, read-out: SARS-CoV-2 NSP14 inhibition: Maximum response
[3] = fit of concentration-response curve
[4] = Hill slope of the concentration-response fit
[5] = maximum response, LUM % inhibition, read-out: SARS-CoV-2 NSP14 inhibition: Maximum response (%)
[6] = read-out: SARS-CoV-2 NSP14 inhibition: IC50

CC(NC(=O)c1cccc(CNC(=O)c2ccc3cncn3c2)n1)c1ccc(F)cc1 (stereo not shown) [RU-0834182]
IC50 [1]: 76.4 µM
Emax [2]: 66.7%
SARS-CoV-2 NSP14 inhibition: Hill slope [3]: 0.699

Cc1cc(C(=O)NCC2CCN2C(=O)c2cc(-c3cccc(F)c3)no2)c(C)cn1 (stereo not shown) [RU-0833939]
IC50 [1]: > 125 µM
Emax [2]: 9.26%
SARS-CoV-2 NSP14 inhibition: Hill slope [3]: 2.25

C[C@@H](NC(=O)CNc1cccc(C(=O)N(C)C)c1)c1ccc(Cl)cc1Cl [RU-0833646]
SARS-CoV-2 NSP14 inhibition: Hill slope [4]: 1.3
Emax [5]: 1.23%
IC50 [6]: > 62.5 µM

C=C1Nc2ncnn2C(C)=C1CC(=O)Nc1cccc(C(=O)Nc2cccc(C(F)(F)F)c2)c1 [RU-0833915]
IC50 [1]: > 125 µM
Emax [2]: 13.7%
SARS-CoV-2 NSP14 inhibition: Hill slope [3]: 16.2

Cc1cc(C(=O)NC2CC(O)(CNC(=O)c3ncn4ccccc34)C2)cc2cn[nH]c12 (stereo not shown) [RU-0834183]
IC50 [1]: > 125 µM
Emax [2]: 11.1%
SARS-CoV-2 NSP14 inhibition: Hill slope [3]: 42.8

O=C(N[C@@H]1CC[C@H](CNC(=O)c2n[nH]c3ncccc23)C1)c1ccc(O)cc1F.O=C(O)C(F)(F)F [RU-0834158]
IC50 [1]: > 125 µM
Emax [2]: 18.2%
SARS-CoV-2 NSP14 inhibition: Hill slope [3]: 1.24

Cc1c(CO)cccc1C(=O)NCC1CCC2CN(C(=O)Cc3cn4ccccc4n3)CC12 (stereo not shown) [RU-0834099]
IC50 [1]: > 125 µM
Emax [2]: 9.83%
SARS-CoV-2 NSP14 inhibition: Hill slope [3]: 53

O=C(Cc1n[nH]c2ccccc12)Nc1cc(F)cc(NC(=O)Cc2n[nH]c3ccccc23)c1 [RU-0833638]
SARS-CoV-2 NSP14 inhibition: Hill slope [4]: 0.606
Emax [5]: 18.1%
IC50 [6]: > 62.5 µM

Cc1ccccc1CC(=O)NCc1cccc(CNC(=O)c2ccc3cncn3c2C)c1 [RU-0834112]
IC50 [1]: 103 µM
Emax [2]: 43.5%
SARS-CoV-2 NSP14 inhibition: Hill slope [3]: 0.813

CC[C@H](CNC(=O)c1cncc2cccnc12)NC(=O)c1ccc2ccccc2n1 [RU-0833685]
SARS-CoV-2 NSP14 inhibition: Hill slope [4]: 1.91
Emax [5]: 2.85%
IC50 [6]: > 62.5 µM

Cc1cc(C(=O)NCc2ccnc(C(=O)NCc3ncc(F)cc3F)c2)ccc1O [RU-0834131]
IC50 [1]: 14.2 µM
Emax [2]: 30.3%
SARS-CoV-2 NSP14 inhibition: Hill slope [3]: 1.08

CCc1cc(F)ccc1C(=O)NCCc1ccc(CNC(=O)c2ccn3nccc3c2)cc1 [RU-0834194]
IC50 [1]: 10.4 µM
Emax [2]: 61.1%
SARS-CoV-2 NSP14 inhibition: Hill slope [3]: 1.08

COc1ccccc1NS(=O)(=O)c1cc(C(=O)NCCc2ccc(OC)c(OC)c2)ccc1C [RU-0833932]
IC50 [1]: > 125 µM
Emax [2]: 31.5%
SARS-CoV-2 NSP14 inhibition: Hill slope [3]: 0.596

CN(C1CCCCC1)S(=O)(=O)c1cccc(C(=O)NCc2cn3ccccc3n2)c1 [RU-0833871]
SARS-CoV-2 NSP14 inhibition: Hill slope [4]: 0.058
Emax [5]: 18%
IC50 [6]: > 125 µM

Cc1cc(C(=O)N[C@@H]2CCC[C@H](CNC(=O)c3cnn4c3CCCC4)C2)cc(C)c1O [RU-0834159]
IC50 [1]: 16.5 µM
Emax [2]: 61.1%
SARS-CoV-2 NSP14 inhibition: Hill slope [3]: 0.966

O=C(CNc1ccc(Br)cc1)Nc1cccc(S(=O)(=O)N2CCCCCC2)c1 [RU-0833935]
IC50 [1]: > 125 µM
Emax [2]: 5.39%
SARS-CoV-2 NSP14 inhibition: Hill slope [3]: 19

O=C(NCc1cccc(C(=O)N2CCCCC2)c1)c1nccc2ccccc12 [RU-0833894]
IC50 [1]: > 125 µM
Emax [2]: 5.92%
SARS-CoV-2 NSP14 inhibition: Hill slope [3]: 14.4

O=C(NCc1nnc2ccccn12)c1ccc(Cl)c(S(=O)(=O)N[C@H]2CCCc3ccccc32)c1 [RU-0833667]
SARS-CoV-2 NSP14 inhibition: Hill slope [4]: 9.99
Emax [5]: 3.98%
IC50 [6]: > 62.5 µM

Cc1ccccc1CNC(=O)c1cc(S(=O)(=O)N2CCc3ccccc3C2)c(C)n1CCO [TDI-013770, Cc1ccccc1CNC(=O)c1cc(S(=O)(=O)N2CCc3ccccc3C2)c(C)n1CCO]
IC50 (TDI-015051 series, retrospective VS set, biochemical MTase assay, read-out: Merged IC50): 0.077 µM

CN(c1cccc(Cl)c1)S(=O)(=O)c1cccc(C(=O)NCc2ccncc2)c1 [RU-0833872]
IC50 [1]: > 125 µM
Emax [2]: 15.3%
SARS-CoV-2 NSP14 inhibition: Hill slope [3]: 38.1

COc1ccc(CC(=O)Nc2ccc(Cl)c(S(=O)(=O)Nc3ccccc3OC)c2)c(OC)c1 [RU-0833911]
IC50 [1]: > 125 µM
Emax [2]: 25%
SARS-CoV-2 NSP14 inhibition: Hill slope [3]: 1.88

Read-outs that look alike come from different tables or passages of the source.
